From a collection of fitness landscapes (doi:10.1126/science.1257360) come the findings set out here.

B1: PhoQ; a variant is named by its letters at X, in order, P23837 (parent)
chain: MKKLLRLFFPLSLRVRFLLATAAVVLVLSLAYGMVALIGYSVSFDKTTFRLLRGESNLFYTLAKWENNKLHVELPENIDKQSPTMTLIYDENGQLLWAQRDVPWLMKMIQPDWLKSNGFHEIEADVNDTSLLLSGDHSIQQQLQEVREDDDDAEMTHSVAVNVYPATSRMPKLTIVVVDTIPVELKSSYMVWSWFIYVLSANLLLVIPLLWVAAWWSLRPIEALAKEVRELEEHNRELLNPATTRELTSLVRNLNRLLKSERERYDKYRTTLTDLTHSLKTPLXXLQXXLRSLRSEKMSVSDAEPVMLEQISRISQQIGYYLHRASMRGGTLLSRELHPVAPLLDNLTSALNKVYQRKGVNISLDISPEISFVGEQNDFVEVMGNVLDNACKYCLEFVEISARQTDEHLYIVVEDDGPGIPLSKREVIFDRGQRVDTLRPGQGVGLAVAREITEQYEGKIVAGESMLGGARMEVIFGRQHSAPKDE

Some of the results follow.

In this assay the parent is B1. The assay can be described thus: enrichment ratio after two sorts for PhoP signalling (ratio (wild type AVST 3.29)); higher = more functional. The conditions noted are these: with PhoP (E. coli).
DHAN: the enrichment ratio was ≤ 0.25.
Consider HNPF, for which the enrichment ratio was ≤ 0.25.
The result for IADI reads ≤ 0.25; that for SKLG, 5.04.
Consider ESES, for which the enrichment ratio was ≤ 0.25.
The figure for MFLD is ≤ 0.25; for HAMA it is ≤ 0.25; for IDGE it is ≤ 0.25.
For FKIW, the enrichment ratio is ≤ 0.25.
The result for MGWM reads 21; that for HRKP, ≤ 0.25.
With YNFG, the enrichment ratio is ≤ 0.25.
The result for WTRN reads ≤ 0.25.
YTGT: the enrichment ratio was ≤ 0.25.
The result for RHAW reads ≤ 0.25.
The figure for YKIA is ≤ 0.25.
The result for VTWL reads ≤ 0.25; that for ILCC, ≤ 0.25; that for YNWS, ≤ 0.25.
As to IRGP, the enrichment ratio is ≤ 0.25.
In the case of YFDQ, the enrichment ratio was ≤ 0.25.
The figure for RLKT is ≤ 0.25; for DHYC it is ≤ 0.25.
The result for RCDS reads ≤ 0.25; that for RSNM, ≤ 0.25; that for IAES, ≤ 0.25.
Regarding MKYQ, the enrichment ratio is ≤ 0.25.
The result for RVVN reads ≤ 0.25.
The figure for MKMS is ≤ 0.25; for YHTW it is ≤ 0.25; for QYLN it is ≤ 0.25.
In the case of RASC, the enrichment ratio is ≤ 0.25.
The result for QQVG reads ≤ 0.25; that for TLYS, ≤ 0.25.
The figure for DTDM is ≤ 0.25; for PIHK it is ≤ 0.25; for FKSW it is ≤ 0.25.
The figure for NSGS is ≤ 0.25; for STWL it is ≤ 0.25; for LFFW it is ≤ 0.25.
Consider VFRK, for which the enrichment ratio is ≤ 0.25.
Turning to IIVW, the enrichment ratio is ≤ 0.25.
The result for NVDW reads ≤ 0.25; that for DEEW, ≤ 0.25; that for RVKC, ≤ 0.25.
The figure for FSVC is ≤ 0.25; for FSNA it is ≤ 0.25.
The result for PQQY reads ≤ 0.25.
Take DRNG: the enrichment ratio is ≤ 0.25.
The result for GRMA reads ≤ 0.25.
The figure for AIHM is ≤ 0.25; for KFEK it is ≤ 0.25.
For the variant SVAA, the enrichment ratio was 1.83.
The result for TTDS reads 1.65; that for TFYV, ≤ 0.25; that for PQAK, ≤ 0.25.
As to MGGG, the enrichment ratio was ≤ 0.25.
Consider ALPS, for which the enrichment ratio was ≤ 0.25.
Consider IHDW, for which the enrichment ratio was ≤ 0.25.
The result for TTPT reads ≤ 0.25; that for EYTG, ≤ 0.25.
Consider LEDC, for which the enrichment ratio is ≤ 0.25.
The figure for LGVS is ≤ 0.25; for RECC it is ≤ 0.25.
The figure for YNFV is ≤ 0.25; for MHVY it is ≤ 0.25; for STCS it is 10.8.
The result for NADH reads ≤ 0.25.
In the case of PCHF, the enrichment ratio was ≤ 0.25.
The result for WCYR reads ≤ 0.25; that for KNFH, ≤ 0.25; that for VQLS, ≤ 0.25.
The figure for YYQR is ≤ 0.25; for GHCM it is ≤ 0.25; for GGQA it is ≤ 0.25.
For VKQR, the enrichment ratio was ≤ 0.25.
On to SANF, for which the enrichment ratio worked out at 2.35.
The result for VTWM reads ≤ 0.25; that for VVRG, ≤ 0.25; that for MEDL, ≤ 0.25.
The figure for GCLK is 3.91; for YTIK it is ≤ 0.25; for QWRF it is ≤ 0.25.
The figure for YHQP is ≤ 0.25.
